T1: human BCMA (B cell maturation antigen, TNFRSF17) on cells (human, UniProt Q02223 1-184)
T1 construct: whole, on cells; Target on H929 or MM.1R GPRC5D knockout cells, K562 cells expressing human BCMA, HEK293 cells of the cell microarray, and BCMA-only lymphoma lines; also called CD269; surface BCMA
T1 sequence (looked up): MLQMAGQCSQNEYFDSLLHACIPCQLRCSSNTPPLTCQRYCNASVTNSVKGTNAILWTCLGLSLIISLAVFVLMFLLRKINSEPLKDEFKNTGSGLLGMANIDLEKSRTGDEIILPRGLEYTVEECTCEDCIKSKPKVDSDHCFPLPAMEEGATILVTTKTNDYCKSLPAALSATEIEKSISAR


Assays:
[1] = molecular target: T2, CD3W200, recombinant CD3εγ heterodimer construct (human, UniProt P07766 22-118; P09693 23-103); assay: SPR, CD3 binding after pH 3.5 stress
T2 construct: also called human CD3 (SPR antigen for BGCB491)

[2] = molecular target: T3, human CD3 (CD3ε of the TCR/CD3 complex) on primary human pan T cells (human, UniProt P07766); assay: flow cytometry, pan T cells, donor D316144; estimated, fixed saturation point from bioinformatic extrapolation
T3 construct: whole, on cells; On T cells CD3ε stands in the whole TCR/CD3 complex
Protocol: (§1) Flow cytometry was used to evaluate the CD3 arm (i.e., CD3B376) binding of BGCB491 to CD3⁺ pan T cells from 7 different healthy human. Cell-based EC₅₀ for CD3B376 could not be determined due to lack of saturation kinetics at 1 hour (FIG. 26). Bioinformatic extrapolation was performed (FIG. 27) using the CD3B376×Null control antibody (i.e., GCDB381) molecule, which saturates within 2 μM top concentration dose-response to constrain the top of the non-linear regression curve to generate a full curve that enables estimation of ECₓ values (Table 21).

[3] = molecular target: T3, human CD3 (CD3ε of the TCR/CD3 complex) …; assay: flow cytometry, pan T cells, donor D327645; estimated, fixed saturation point from bioinformatic extrapolation
Protocol: as §1

[4] = molecular target: T1, human BCMA (B cell maturation antigen, …); assay: flow cytometry, H929 GPRC5D KO cells, 1 h 37C; Run 5
Protocol: First, FACS-based binding for GPRC5D and BCMA binding arms of the trispecific molecule was determined by measuring the effective concentration (EC) range from a dose-response curve using a 4-parameter fit at 37° C. for 1 hr. This was assessed using an H929 suite of cells (WT, GPRC5D-KO, BCMA-KO, and GPRC5D/BCMA KO), and a similar MM.1R suite. Cell based EC₅₀ is approximately 13 nM for WT H929 (FIGS. 2A-2D, Table 7) and 2.4 nM for WT MM.1R (FIGS. 3A-3D, Table 8). A clear avidity affect is observed as EC₅₀ and Bmax are both reduced in GPRC5D-KO and BCMA-KO lines which test monovalent binding of target binding arms (Table 7). Next, cell-based EC₅₀ was determined for the CD3-binding Fab arm using purified Pan T cells from three random donors. […] Next, dose responsive binding was assessed at 4° C. to remove any potential biological effects. As shown in FIGS. 5A-5C, binding is stronger (50-100 nM) at 4° C., compared to 37° C., which may indicate internalization. Additionally, two expression lots of BGCB463 (BGCB463.003 from transient transfection and BGCB463.004 from a stable transfection pool), were directly compared with binding to H929, MM.1R, and Pan T cells and no differences were noted (FIGS. 6A-6C).

[5] = molecular target: T1, human BCMA (B cell maturation antigen, …); assay: flow cytometry, K562 cells expressing human BCMA, 1 h 37C
Protocol: (§2) FIGS. 9A-E. BGCB463 (circles) or negative control B23B251 (triangles) were all incubated with K562 cells expressing human GPRC5D (FIG. 9A), human BCMA (FIG. 9B), cynomolgus GPRC5D (FIG. 9C) or cynomolgus BCMA (FIG. 9D) for 1 hr at 37° C. at a starting concentration of 2 μM. After secondary detection with AF647-anti-human IgG, the MFI signal was analyzed to generate an EC₅₀ and EC₉₀ (FIG. 9E). Data are representative of two independent experiments.
(§3) The GPRC5D (i.e., GC5B680) and BCMA binding arms were assessed for cross-reactivity to cynomolgus monkey as part of the BGCB463 molecule, which uses the identical binding arms as BGCB491. Cross reactivity to cynomolgus monkeys was profiled for both target-binding scFv arms using FACS-based cell binding at 37° C. for 1 hour with K562 stably expressing human or cynomolgus monkey GPRC5D or BCMA. The cell-based EC₅₀ value for the GC5B680 scFv arm was approximately 30 nM against human GPRC5D-expressing cells and about 10-fold weaker (approximately 400 nM) on cynomolgus monkey GPRC5D-expressing cells.

[6] = molecular target: T3, human CD3 (CD3ε of the TCR/CD3 complex) …; assay: flow cytometry, human pan T cells, Donor 2, 1 h 37C; average of runs
Protocol: For binding of BGCB463 to human and cynomolgus Pan T cells, three human donors (Hemacare) were selected, quickly thawed, resuspended, and aliquoted into a 96-well plate at 1×10⁶ cells/mL. Cells were then washed, Fc blocked if necessary (Innovex), and stained with viability dye (Invitrogen). BGCB463 and its corresponding isotype (B23B251) were diluted in complete media to an initial concentration of 2 μM and 1:3 serial dilutions in duplicate were performed for a dose-response curve. The cells were incubated with molecules at 4° C. or 37° C. for 1 hour. When necessary, incubation with 90% human serum (Sigma) was also performed as described above.
First, FACS-based binding for GPRC5D and BCMA binding arms of the trispecific molecule was determined by measuring the effective concentration (EC) range from a dose-response curve using a 4-parameter fit at 37° C. for 1 hr. This was assessed using an H929 suite of cells (WT, GPRC5D-KO, BCMA-KO, and GPRC5D/BCMA KO), and a similar MM.1R suite. Cell based EC₅₀ is approximately 13 nM for WT H929 (FIGS. 2A-2D, Table 7) and 2.4 nM for WT MM.1R (FIGS. 3A-3D, Table 8). […] Next, cell-based EC₅₀ was determined for the CD3-binding Fab arm using purified Pan T cells from three random donors. […] Next, dose responsive binding was assessed at 4° C. to remove any potential biological effects. […]

[7] = molecular target: T1, human BCMA (B cell maturation antigen, …); assay: flow cytometry on K562 cells expressing human BCMA, 1 hr 37 C, Run 1
Protocol: as §2, §3

[8] = molecular target: T1, human BCMA (B cell maturation antigen, …); assay: flow cytometry on H929 GPRC5D KO cells (BCMA arm), 1 hr 37 C, AF647 secondary detection
Protocol: FIGS. 2A-2D. BGCB463 (circles) or negative control B23B251 (triangles) were all incubated with H929 wild type (WT) (FIG. 2A), H929-GPRC5D knock out (KO) (FIG. 2B), H929-BCMA KO (FIG. 2C), and H929-GPRC5D/BCMA KO (FIG. 2D) cells for 1 hr at 37° C. at a starting concentration of 2 μM. After secondary detection with AF647-labeled material, the MFI signal was analyzed to generate an EC₅₀ and EC₉₀. Curves are representative of five independent experiments. EC₅₀ or EC₉₀ values are averages of these.
First, FACS-based binding for GPRC5D and BCMA binding arms of the trispecific molecule was determined by measuring the effective concentration (EC) range from a dose-response curve using a 4-parameter fit at 37° C. for 1 hr. This was assessed using an H929 suite of cells (WT, GPRC5D-KO, BCMA-KO, and GPRC5D/BCMA KO), and a similar MM.1R suite. Cell based EC₅₀ is approximately 13 nM for WT H929 (FIGS. 2A-2D, Table 7) and 2.4 nM for WT MM.1R (FIGS. 3A-3D, Table 8). A clear avidity affect is observed as EC₅₀ and Bmax are both reduced in GPRC5D-KO and BCMA-KO lines which test monovalent binding of target binding arms (Table 7). Next, cell-based EC₅₀ was determined for the CD3-binding Fab arm using purified Pan T cells from three random donors. […] Next, dose responsive binding was assessed at 4° C. to remove any potential biological effects. […]

Binder	Kd [1] [nM]	EC50 [2] [nM]	EC50 [3] [nM]	EC50 [4] [nM]	EC50 [5] [nM]	EC50 [6] [nM]	EC50 [7] [nM]	EC50 (read off the curve) [8] [nM]
BGCB491 (other, Trispecific IgG1 antibody (L234A, L235A, D265S); Heavy chain 1 = anti-CD3 (CD3B376) Fab heavy chain, hole and RF mutations, with C-terminal anti-GPRC5D scFv (GC5B680); Heavy chain 2 = anti-BCMA scFv (BCMB519) - Fc knob; also called JNJ-79635322; BCMA×GPRC5D×CD3 trispecific mAb) heavy: QVQLQQSGPRLVRPSQTLSLTCAISGDSVFNNNAAWSWIRQSPSRGLEWLGRTYYRSKWLYDYAVSVKSRITVNPDTSRNQFTLQLNSVTPEDTALYYCARGYSSSFDYWGQGTLVTVSSASTKGPSVFPLAPSSKSTSGGTAALGCLVKDYFPEPVTVSWNSGALTSGVHTFPAVLQSSGLYSLSSVVTVPSSSLGTQTYICNVNHKPSNTKVDKKVEPKSCDKTHTCPPCPAPEAAGGPSVFLFPPKPKDTLMISRTPEVTCVVVSVSHEDPEVKFNWYVDGVEVHNAKTKPREEQYNSTYRVVSVLTVLHQDWLNGKEYKCKVSNKALPAPIEKTISKAKGQPREPQVYTLPPSREEMTKNQVSLSCAVKGFYPSDIAVEWESNGQPENNYKTTPPVLDSDGSFFLVSKLTVDKSRWQQGNVFSCSVMHEALHNRFTQKSLSLSPGKGGGGSGGGGSGGGGSGGGGS[letters of about 100 residues not shown]QFPHTFGQGTKLEIKGGSEGKSSGSGSESKSTGGSQVTLKESGPVLVKPTETLTLTCTVSGFSLTNIRMSVSWIRQPPGKALEWLAHIFSNDEKSYSTSLKSRLTISRDTSKSQVVLTLTNVDPVDTATYYCARMRLPYGMDVWGQGTTVTVSS light: QSALTQPASVSGSPGQSITISCTGTSSNIGTYKFVSWYQQHPDKAPKVLLYEVSKRPSGVSSRFSGSKSGNTASLTISGLQAEDQADYHCVSYAGSGTLLFGGGTKLTVLGQPKAAPSVTLFPPSSEELQANKATLVCLISDFYPGAVTVAWKADSSPVKAGVETTTPSKQSNNKYAASSYLSLTPEQWKSHRSYSCQVTHEGSTVEKTVAPTECS EIVLTQSPGTLSLSPGERATLSCRASQSISSSFLTWYQQKPGQAPRLLIYGASSRATGIPDRFSGGGSGTDFTLTISRLEPEDFAVYYCQHYGSSPMYTFGQGTKLEIKGGSEGKSSGSGSESKSTGGS[letters of about 100 residues not shown]DEGYSSGHYYGMDVWGQGTTVTVSSEPKSSDKTHTCPPCPAPEAAGGPSVFLFPPKPKDTLMISRTPEVTCVVVSVSHEDPEVKFNWYVDGVEVHNAKTKPREEQYNSTYRVVSVLTVLHQDWLNGKEYKCKVSNKALPAPIEKTISKAKGQPREPQVYTLPPSREEMTKNQVSLWCLVKGFYPSDIAVEWESNGQPENNYKTTPPVLDSDGSFFLYSKLTVDKSRWQQGNVFSCSVMHEALHNHYTQKSLSLSPGK	21.7	4990	3360					
BGCB463 (other, Trispecific IgG1 antibody (L234A, L235A, D265S); Heavy chain 1 = anti-CD3 (CD3B376) Fab heavy chain with hole and RF mutations; also called BGCB463.003; BGCB463.004) heavy: QVQLQQSGPRLVRPSQTLSLTCAISGDSVFNNNAAWSWIRQSPSRGLEWLGRTYYRSKWLYDYAVSVKSRITVNPDTSRNQFTLQLNSVTPEDTALYYCARGYSSSFDYWGQGTLVTVSSASTKGPSVFPLAPSSKSTSGGTAALGCLVKDYFPEPVTVSWNSGALTSGVHTFPAVLQSSGLYSLSSVVTVPSSSLGTQTYICNVNHKPSNTKVDKKVEPKSCDKTHTCPPCPAPEAAGGPSVFLFPPKPKDTLMISRTPEVTCVVVSVSHEDPEVKFNWYVDGVEVHNAKTKPREEQYNSTYRVVSVLTVLHQDWLNGKEYKCKVSNKALPAPIEKTISKAKGQPREPQVYTLPPSREEMTKNQVSLSCAVKGFYPSDIAVEWESNGQPENNYKTTPPVLDSDGSFFLVSKLTVDKSRWQQGNVFSCSVMHEALHNRFTQKSLSLSPGK light: QSALTQPASVSGSPGQSITISCTGTSSNIGTYKFVSWYQQHPDKAPKVLLYEVSKRPSGVSSRFSGSKSGNTASLTISGLQAEDQADYHCVSYAGSGTLLFGGGTKLTVLGQPKAAPSVTLFPPSSEELQANKATLVCLISDFYPGAVTVAWKADSSPVKAGVETTTPSKQSNNKYAASSYLSLTPEQWKSHRSYSCQVTHEGSTVEKTVAPTECS [letters of about 100 residues not shown]QFPHTFGQGTKLEIKGGSEGKSSGSGSESKSTGGSQVTLKESGPVLVKPTETLTLTCTVSGFSLTNIRMSVSWIRQPPGKALEWLAHIFSNDEKSYSTSLKSRLTISRDTSKSQVVLTLTNVDPVDTATYYCARMRLPYGMDVWGQGTTVTVSSEPKSSDKTHTCPPCPAPEAAGGPSVFLFPPKPKDTLMISRTPEVTCVVVSVSHEDPEVKFNWYVDGVEVHNAKTKPREEQYNSTYRVVSVLTVLHQDWLNGKEYKCKVSNKALPAPIEKTISKAKGQPREPQVYTLPPSREEMTKNQVSLWCLVKGFYPSDIAVEWESNGQPENNYKTTPPVLDSDGSFFLYSKLTVDKSRWQQGNVFSCSVMHEALHNHYTQKSLSLSPGKGGSEGKSSGSGSESKSTGGSEIVLTQSPGTLSLSPGERATLSCRASQSISSSFLTWYQQKPGQAPRLLIYGASSRATGIPDRFSGGGSGTDFTLTISRLEPEDFAVYYCQHYGSSPMYTFGQGTKLEIKGGSEGKSSGSGSESKSTGGS[letters of about 100 residues not shown]DEGYSSGHYYGMDVWGQGTTVTVSS				457	~145	290	248	~100

— US20220267438A1 (Janssen / Centocor, published 2022)
